# Among all 340,000 compounds or so, about 12,000 (3.5%) were called active. This list was built around the results that the source calls inconclusive (neither active nor inactive); the mix of calls is not that of the screen. Calls come from the whole dose curve; as a rule, active = well fitted inhibition curve with a large enough effect; inconclusive = small, poorly fitted or top-dose-only effect, or another doubt; inactive = no such curve, though single readings can be large or run the other way. No potency is given beside an inconclusive call; the fits are too rough.
# Assay: qHTS Assay for Inhibitors of Hepatitis C Virus (HCV)
# Settings: Huh7.5.1 HCVcc-Cre (HCVcc is cell-culture hepatitis C virus) infection, luciferase reporter, 44 h; activity change, negative = inhibition: at 41.8 µM (top of the series) unless noted
# Summary of the method: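 Cells (1,000/well) were plated 4 h before compound, then infected with HCVcc-Cre virus (~0.5 moi). After 44 h further culture, infection was read as luciferase luminescence following a 15 min substrate incubation at room temperature.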
# % is set by controls: 0 for no effect and ±100 for the full control effect; potency is the fitted concentration of half-maximal effect; tags give direction and shape of the fitted curve.
SMILES,Potency,"activity change, negative = inhibition"
COC(=O)c1cc2c(ccn2-c2ccc(F)cc2)n1Cc1ccc(OC)cc1,"inconclusive [inhibitor, single point]",
Cc1cc2cc(C(c3nnnn3Cc3ccco3)N3CCc4ccccc43)c(=O)[nH]c2cc1C (stereo not drawn),"inconclusive [inhibitor, single point]",
O=C(NCC(c1ccco1)N1CCCCC1)c1ccc(COc2ccc(Cl)cc2)cc1 (stereo not drawn),"inconclusive [inhibitor, single point]",
COc1cc(/C=C/C(=O)OCC(=O)N2CCCC2)cc(OC)c1OC,,inactive: -16%
Cc1cc(=O)[nH]c(Nc2cccc(C(F)(F)F)c2)n1,"inconclusive [inhibitor, single point]",
Cc1cc(OCC(=O)NCCO)cc(C)c1Cl,"inconclusive [inhibitor, partial curve]",
O=C(NCCCN1CCOCC1)C(=O)N/N=C/c1c2ccccc2cc2ccccc12,active: 11.2 µM,
CCN(CC)CCCNC(=O)c1cn(CC)c2ccc(S(=O)(=O)N3CCc4ccccc4C3)cc2c1=O,"inconclusive [inhibitor, partial curve, poor fit]",
Cc1ccc(-c2cnc(SCCNC(=O)c3ccco3)[nH]2)cc1,"inconclusive [inhibitor, single point]",
C=C(C)COc1ccc(-c2ncncc2-c2ccccc2OC)c(O)c1,"inconclusive [inhibitor, single point]",
CN(C)S(=O)(=O)c1ccc(Cl)c(NC(=O)CN2C(=O)NC(C)(C3CC3)C2=O)c1 (stereo not drawn),,inactive: -0.985%
O=C(O)CC1(CC(=O)Nc2ccc3sccc3c2)CCCCC1,"inconclusive [inhibitor, partial curve]",
Cc1ccc(-c2nc(N/N=C/c3ccncc3)c3ccccc3n2)cc1,,inactive: -22.9%
O=C(c1ccccc1)N1CCN(C(=O)c2nn3c(C(F)(F)F)cc(-c4ccco4)nc3c2Br)CC1,"inconclusive [inhibitor, partial curve]",
COc1ccc2c(c1)CCC1=C2NC(=S)NC1c1ccc(N(C)C)cc1 (stereo not drawn),active: 11.2 µM,
Cc1ccc2nc(-c3ccc(NS(=O)(=O)c4c(C)n(C)c(=O)n(C)c4=O)cc3)sc2c1,"inconclusive [inhibitor, partial curve]",
Cc1ccc(NC(=O)[C@@H]2CCCN2C(=O)c2cccs2)cc1S(=O)(=O)N1CCCCC1,"inconclusive [inhibitor, single point]",
Cc1cc(=O)n2cccc(O)c2n1,"inconclusive [inhibitor, single point]",
O=C(Nc1ccc(Oc2cccnc2)cc1)c1ccc([N+](=O)[O-])cc1,,inconclusive: -45.4% [inhibitor]
CCN(CC)CCCNC(=O)CSc1c2c(nc3cc(Cl)ccc13)CCCC2,active: 10 µM,
Cc1c(NS(=O)(=O)c2ccc3c(c2)NC(=O)CC(=O)N3)cccc1[N+](=O)[O-],,inactive: 8.27%
CC(C)C[C@H](NC(=O)NC1CCCc2ccccc21)C(=O)O (stereo partly drawn),,inactive: 6.87%

SMILES,Potency,"activity change, negative = inhibition"
O=C(Nc1cccc(Cl)c1)c1ccc(S(=O)(=O)NCC2CCCO2)cc1 (stereo not drawn),"inconclusive [inhibitor, single point]",
O=C(NCc1ccco1)c1ccc(Cn2c(=S)[nH]c3ccccc3c2=O)cc1,"inconclusive [inhibitor, partial curve]",
Oc1ccc(Cl)cc1CNc1ccc(Br)cn1,"inconclusive [inhibitor, partial curve]",
CCC(=O)c1ccc(OCC(=O)NCCC2=CCCCC2)c(OC)c1,,inactive: -19.3%
COc1cc2cc(C(=O)N3CCN(Cc4ccc5c(c4)OCO5)CC3)[nH]c2cc1OC,"inconclusive [inhibitor, single point]",
COc1cccc(N2C(=O)NC(=O)/C(=C\c3cn(C)c4ccccc34)C2=O)c1,"inconclusive [inhibitor, single point]",
Oc1ccc(/C=C/c2ccc3ccccc3n2)cc1,"inconclusive [inhibitor, partial curve]",
c1ccc(C[C@H]2CNCCN2CCc2cccc3ccccc23)cc1,"inconclusive [inhibitor, single point]",
CN(C)Cc1c(O)ccc2ccccc12,,inactive: -0.584%
COc1ccccc1NC(=S)N=Nc1c(O)[nH]c2ccc(Br)cc12,"inconclusive [inhibitor, full curve]",
C#CCN(C)[C@H](C)Cc1ccccc1,"inconclusive [inhibitor, single point]",
Cc1ccc(S(=O)(=O)N[C@H](C(=O)OCC(=O)NC(=O)NCc2ccco2)C(C)C)cc1,"inconclusive [inhibitor, single point]",
COc1cccc(CNC(=O)CCc2nnc(C3CCCCC3)o2)c1,,inactive: -0.221%
CCc1cc2c(cc3c(=O)n(CC(=O)NCCCN4CC(C)CC(C)C4)ncn32)s1 (stereo not drawn),,inactive: 1.23%
O=C(Nc1cccc(Br)c1)c1cc(S(=O)(=O)N2CCOCC2)cs1,"inconclusive [inhibitor, partial curve]",
Cc1ccc(-c2cc(C(=O)N/N=C/c3c(C)nn(-c4ccccc4)c3C)n[nH]2)s1,active: 8.91 µM,
Cc1nn(-c2ccccc2)c(C)c1C(=O)OCC(=O)Nc1cccc(S(N)(=O)=O)c1,"inconclusive [inhibitor, partial curve]",
Cc1cccc(NC(=O)Cn2nnc(C(=O)Nc3ccc(F)c(Cl)c3)c2N)c1,"inconclusive [inhibitor, single point]",
Cc1oc(-c2cccs2)nc1CN1CC[C@@](O)(c2ccccc2)[C@H]2CCCC[C@@H]21,"inconclusive [inhibitor, single point]",
CCC(=O)N1CCCc2cc(S(=O)(=O)N3CCN(c4ccccn4)CC3)ccc21,"inconclusive [inhibitor, single point]",
COc1ccc2c3n(nc2c1)CCN=C3c1ccc(C)cc1,"inconclusive [inhibitor, partial curve]",

# Source: PubChem BioAssay AID651820 (National Center for Advancing Translational Sciences (NCATS), 2012)
